Laboratory results as given in the supplement of paper PMC6746778.
Structures can show the parent of a compound that is named as a salt. The list shows a part of the results. Single values are uncertain, as repeats are few or missing.

Key:
Assay in all cases: proliferation Z-score within cell line (SRB, relative to all inhibitors screened on that line); triple-negative breast cancer lines and a kinase inhibitor library; SRB is the sulforhodamine B protein stain; higher = less growth inhibition (more resistant)
Conditions in all cases: concentration: 1 µM; 4 days
[1] = tested on: Bt20
[2] = tested on: Bt549
[3] = tested on: HCC1143
[4] = tested on: HCC1806
[5] = tested on: HCC1937
[6] = tested on: HCC38
[7] = tested on: HCC70
[8] = tested on: Hs578T
[9] = tested on: MDA-MB-231
[10] = tested on: MDA-MB-435s
[11] = tested on: MDA-MB-436
[12] = tested on: MDA-MB-453
[13] = tested on: MDA-MB-468
[14] = tested on: SKBR7
[15] = tested on: SUM1315MO2
[16] = tested on: SUM149PT
[17] = tested on: SUM159PT
[18] = tested on: SUM185PE
[19] = tested on: SUM229PE
[20] = tested on: SUM52PE
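Also: Single-dose primary screen of a 378-member kinase inhibitor library in 96-well plates, with growth read as absorbance of protein-bound SRB dye after TCA fixation.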

SMILES	proliferation Z-score within cell line [1]	proliferation Z-score within cell line [2]	proliferation Z-score within cell line [3]	proliferation Z-score within cell line [4]	proliferation Z-score within cell line [5]	proliferation Z-score within cell line [6]	proliferation Z-score within cell line [7]	proliferation Z-score within cell line [8]	proliferation Z-score within cell line [9]	proliferation Z-score within cell line [10]	proliferation Z-score within cell line [11]	proliferation Z-score within cell line [12]	proliferation Z-score within cell line [13]	proliferation Z-score within cell line [14]	proliferation Z-score within cell line [15]	proliferation Z-score within cell line [16]	proliferation Z-score within cell line [17]	proliferation Z-score within cell line [18]	proliferation Z-score within cell line [19]	proliferation Z-score within cell line [20]
COc1ccc(S(=O)(=O)N(CCO)c2ccccc2CN(C)C/C=C/c2ccc(Cl)cc2)cc1 [KN-93 Phosphate]	-0.663	-0.983	-0.437	-1.39	-0.913	-2	-0.876	-1.08	0.539	0.348	-0.719	-1.71	-0.574	-0.846	-0.116	0.122	0.399	0.0465	0.0765	0.56
CO[C@@H](C(=O)N1Cc2[nH]nc(NC(=O)c3ccc(N4CCN(C)CC4)cc3)c2C1)c1ccccc1	-0.892	-1.47	0.68	-0.0957	0.111	-1.14	0.622	-0.618	-1.47	-0.548	0.937	-1.05	-1.39	-1.08	-1.97	-0.55	0.577	-1.94	-0.1	-1.41
CN(C)CCSSCCNC(=O)C1CCN(C(=O)CSc2ccc(Cl)cc2)CC1	0.476	0.0134	0.647	-1.21	0.355	0.00917	0.411	0.182	0.709	0.365	-1.36	-1.29	0.394	0.733	0.151	0.624	0.358	0.407	0.178	0.631
CCC[C@H](NC(=O)/C(C#N)=C/c1cccc(Br)n1)c1ccccc1 [Degrasyn (WP1130)]	0.747	0.511	0.596	0.698	0.488	0.522	0.484	0.631	0.422	0.637	0.647	0.658	0.605	0.875	0.605	0.617	0.461	0.634	0.873	0.87
CCOc1ccn(-c2ccc(F)cc2)c(=O)c1C(=O)Nc1ccc(Oc2ccnc(N)c2Cl)c(F)c1	0.836	0.863	0.903	0.768	0.778	0.558	0.832	0.598	0.691	0.564	0.543	0.829	0.912	0.925	0.668	0.984	0.557	0.527	0.423	0.639
CNC(=O)c1ccccc1Nc1nc(Nc2ccc(N3CCOCC3)cc2OC)ncc1Cl	-0.127	0.4	-0.475	-0.975	0.0523	-0.0406	-0.323	-0.352	-0.864	-0.838	0.149	-0.892	0.124	-1.04	0.0145	-0.838	-0.607	0.257	-0.946	-0.234
CNCc1ccc(-c2cc(-c3nc(-c4ccc(S(=O)(=O)C(C)C)cc4)cnc3N)on2)cc1	-1.47	-0.31	0.56	-1.29	0.192	0.455	0.523	0.708	-1.42	-0.668	-0.552	-0.158	-1.39	-0.877	-0.257	-2.51	0.0751	-0.336	-1.01	0.104
CN(C)Cc1cccc(N=C(c2ccccc2)c2c(O)[nH]c3cc(C(=O)N(C)C)ccc23)c1	0.327	0.721	1.03	0.37	0.839	0.659	0.838	0.701	0.561	0.86	1.29	0.863	0.692	0.153	0.452	0.906	0.677	0.152	0.523	0.162
O=C(NOC[C@H](O)CO)c1ccc(F)c(F)c1Nc1ccc(I)cc1F	0.0724	-0.218	-0.698	-1.84	0.399	-0.731	-0.136	-1.18	-2.11	-2.01	0.179	-1.39	-0.646	0.0511	-0.33	-2.75	0.157	-0.281	-2.43	-1.16
CS(=O)(=O)N1CCc2c(-c3cnc(N)nc3)nc(N3CCOCC3)nc21	-1.8	0.463	0.599	0.206	0.592	0.63	0.7	0.359	-0.68	-0.74	0.572	-0.807	-0.301	0.682	-0.411	0.00987	0.449	-1.51	-1.1	-0.974
Cn1cc(C2=C(c3cn(CCCSC(=N)N)c4ccccc34)C(=O)NC2=O)c2ccccc21 [Ro 31-8220 Mesylate]	0.376	-0.685	0.534	0.665	0.657	0.558	-0.427	0.289	-0.693	-0.492	-1.77	-0.551	-1.48	0.329	1.02	0.611	0.415	1.23	-0.065	0.499
CCN1C(=CC(C)=O)Sc2ccc(OC)cc21	0.546	0.045	0.787	-0.099	0.386	0.424	0.545	0.359	0.676	0.483	-0.503	-0.369	0.695	0.874	0.235	0.635	0.44	0.596	0.152	1.01
